Assay results as given in PMC12820563, “FoxP3 forms a head-to-head dimer in vivo and stabilizes its multimerization on adjacent microsatellites”.
Some of the results follow.

biological target: T1, MBP-FoxP1dN (Mus musculus, UniProt P58462 326-579); experiment: PD-seq (MBP pull-down with sequencing); 20 mM Tris-HCl pH 7.5, 100 mM NaCl, 1.5 mM MgCl2, 0.4 uM protein, 0.1 uM dsDNA library, 30 min, room temperature, amylose pull-down; high values mean tight binding; settings: protein: recombinant; tags: His6-MBP; chain copies: 2; dsDNA, one strand shown
T1 sequence: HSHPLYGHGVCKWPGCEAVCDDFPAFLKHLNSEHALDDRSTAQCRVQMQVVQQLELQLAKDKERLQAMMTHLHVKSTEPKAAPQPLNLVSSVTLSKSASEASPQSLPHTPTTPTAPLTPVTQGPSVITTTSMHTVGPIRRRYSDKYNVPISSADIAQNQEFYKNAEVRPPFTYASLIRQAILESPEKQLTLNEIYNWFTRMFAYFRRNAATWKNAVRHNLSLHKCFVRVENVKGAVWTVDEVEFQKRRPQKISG
How it was run: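 In Tris pH 7.5 buffer with NaCl and MgCl2, 0.4 µM His6-MBP-tagged mouse FoxP3 or FoxP1 fragment lacking the N-terminus, from E. coli, met 0.1 µM Klenow-filled double-stranded degenerate DNA library for 30 min at room temperature. Three washes on amylose resin followed capture of the complexes, then proteinase K release of DNA, PCR barcoding and Illumina sequencing. Binding is taken as pooled-replicate reads-per-million enrichment of pull-down relative to input.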

| Sequence | binding signal |
| --- | --- |
| GATGATTGTTCTCCCAGCTGATGAATTTCTTCATTCGAGTAAACAAATTTTCCTAATCTTTCTGTTCAAGCGCCATCTAC | 0.886 RPM ratio (pull-down/input) |
| GATGATTGTTCTCCCAGCTGATGAATTGACGGTGTCGAGTAAACAAATTTTCCTAATCTTTCTGTTCAAGCGCCATCTAC | 1.06 RPM ratio (pull-down/input) |
| GATGATTGTTCTCCCAGCTGATGAATTCGGGATTTCGAGTAAACAAATTTTCCTAATCTTTCTGTTCAAGCGCCATCTAC | 0.851 RPM ratio (pull-down/input) |
| GATGATTGTTCTCCCAGCTGATGAATTCATACATTCGAGTAAACAAATTTTCCTAATCTTTCTGTTCAAGCGCCATCTAC | 1.01 RPM ratio (pull-down/input) |
| GATGATTGTTCTCCCAGCTGATGAATTATAAGTCTCGAGTAAACAAATTTTCCTAATCTTTCTGTTCAAGCGCCATCTAC | 0.907 RPM ratio (pull-down/input) |
| GATGATTGTTCTCCCAGCTGATGAATTAATTCATTCGAGTAAACAAATTTTCCTAATCTTTCTGTTCAAGCGCCATCTAC | 0.901 RPM ratio (pull-down/input) |
| GATGATTGTTCTCCCAGCTGATGAATTGTGGTCCTCGAGTAAACAAATTTTCCTAATCTTTCTGTTCAAGCGCCATCTAC | 1.01 RPM ratio (pull-down/input) |
| GATGATTGTTCTCCCAGCTGATGAATTTCTCGGGTCGAGTAAACAAATTTTCCTAATCTTTCTGTTCAAGCGCCATCTAC | 0.834 RPM ratio (pull-down/input) |
| GATGATTGTTCTCCCAGCTGATGAATTAACCATCTCGAGTAAACAAATTTTCCTAATCTTTCTGTTCAAGCGCCATCTAC | 0.866 RPM ratio (pull-down/input) |
| GATGATTGTTCTCCCAGCTGATGAATTGAGGTCTTCGAGTAAACAAATTTTCCTAATCTTTCTGTTCAAGCGCCATCTAC | 0.786 RPM ratio (pull-down/input) |
| GATGATTGTTCTCCCAGCTGATGAATTCACCGGTTCGAGTAAACAAATTTTCCTAATCTTTCTGTTCAAGCGCCATCTAC | 0.877 RPM ratio (pull-down/input) |
| GATGATTGTTCTCCCAGCTGATGAATTGCGCTCGTCGAGTAAACAAATTTTCCTAATCTTTCTGTTCAAGCGCCATCTAC | 1.07 RPM ratio (pull-down/input) |
| GATGATTGTTCTCCCAGCTGATGAATTCTGCCTGTCGAGTAAACAAATTTTCCTAATCTTTCTGTTCAAGCGCCATCTAC | 0.791 RPM ratio (pull-down/input) |
| GATGATTGTTCTCCCAGCTGATGAATTTGAGAGGTCGAGTAAACAAATTTTCCTAATCTTTCTGTTCAAGCGCCATCTAC | 0.717 RPM ratio (pull-down/input) |
| GATGATTGTTCTCCCAGCTGATGAATTCGAATATTCGAGTAAACAAATTTTCCTAATCTTTCTGTTCAAGCGCCATCTAC | 0.877 RPM ratio (pull-down/input) |
| GATGATTGTTCTCCCAGCTGATGAATTTCCGATTTCGAGTAAACAAATTTTCCTAATCTTTCTGTTCAAGCGCCATCTAC | 0.898 RPM ratio (pull-down/input) |

| Sequence | binding signal |
| --- | --- |
| GATGATTGTTCTCCCAGCTGATGAATTGTGAGTTTCGAGTAAACAAATTTTCCTAATCTTTCTGTTCAAGCGCCATCTAC | 1.11 RPM ratio (pull-down/input) |
| GATGATTGTTCTCCCAGCTGATGAATTCTCCGGATCGAGTAAACAAATTTTCCTAATCTTTCTGTTCAAGCGCCATCTAC | 0.76 RPM ratio (pull-down/input) |
| GATGATTGTTCTCCCAGCTGATGAATTTGTTAGATCGAGTAAACAAATTTTCCTAATCTTTCTGTTCAAGCGCCATCTAC | 1.21 RPM ratio (pull-down/input) |
| GATGATTGTTCTCCCAGCTGATGAATTGATCGTATCGAGTAAACAAATTTTCCTAATCTTTCTGTTCAAGCGCCATCTAC | 1.03 RPM ratio (pull-down/input) |
| GATGATTGTTCTCCCAGCTGATGAATTCTTGTCTTCGAGTAAACAAATTTTCCTAATCTTTCTGTTCAAGCGCCATCTAC | 0.873 RPM ratio (pull-down/input) |
| GATGATTGTTCTCCCAGCTGATGAATTTCACTGATCGAGTAAACAAATTTTCCTAATCTTTCTGTTCAAGCGCCATCTAC | 0.816 RPM ratio (pull-down/input) |
| GATGATTGTTCTCCCAGCTGATGAATTGATGGGGTCGAGTAAACAAATTTTCCTAATCTTTCTGTTCAAGCGCCATCTAC | 0.84 RPM ratio (pull-down/input) |
| GATGATTGTTCTCCCAGCTGATGAATTTGATGCCTCGAGTAAACAAATTTTCCTAATCTTTCTGTTCAAGCGCCATCTAC | 1.06 RPM ratio (pull-down/input) |
| GATGATTGTTCTCCCAGCTGATGAATTTATCTTGTCGAGTAAACAAATTTTCCTAATCTTTCTGTTCAAGCGCCATCTAC | 0.992 RPM ratio (pull-down/input) |
| GATGATTGTTCTCCCAGCTGATGAATTTCAGGGCTCGAGTAAACAAATTTTCCTAATCTTTCTGTTCAAGCGCCATCTAC | 0.746 RPM ratio (pull-down/input) |
| GATGATTGTTCTCCCAGCTGATGAATTCGGTAAATCGAGTAAACAAATTTTCCTAATCTTTCTGTTCAAGCGCCATCTAC | 1.22 RPM ratio (pull-down/input) |
| GATGATTGTTCTCCCAGCTGATGAATTGAGATCATCGAGTAAACAAATTTTCCTAATCTTTCTGTTCAAGCGCCATCTAC | 0.904 RPM ratio (pull-down/input) |
| GATGATTGTTCTCCCAGCTGATGAATTCGATCGTTCGAGTAAACAAATTTTCCTAATCTTTCTGTTCAAGCGCCATCTAC | 0.836 RPM ratio (pull-down/input) |
| GATGATTGTTCTCCCAGCTGATGAATTATAATAATCGAGTAAACAAATTTTCCTAATCTTTCTGTTCAAGCGCCATCTAC | 1.51 RPM ratio (pull-down/input) |
| GATGATTGTTCTCCCAGCTGATGAATTAAATCCGTCGAGTAAACAAATTTTCCTAATCTTTCTGTTCAAGCGCCATCTAC | 0.827 RPM ratio (pull-down/input) |
| GATGATTGTTCTCCCAGCTGATGAATTTCGTGCTTCGAGTAAACAAATTTTCCTAATCTTTCTGTTCAAGCGCCATCTAC | 0.919 RPM ratio (pull-down/input) |
